Experimental data from PubChem BioAssay AID328 (DTP/NCI, 2004).
Toxic doses and inconclusive results are not listed. A number of entries come with more than one value. This list holds those alone. An entry can have further records. The records of an entry differ for a reason that is not stated; some may be repeats, others may stem from another dose, organism or construct than stated.

Tested on: BDF1 mice, P388 leukemia ip, median survival T/C
Test: NCI In Vivo Anticancer Drug Screen. Data for tumor model P388 Leukemia (intraperitoneal) in B6D2F1 (BDF1) mice
Conditions: endpoint: median survival time, higher = longer survival
Summary of the method: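 Reported as T/C, where T is the survival measurement in dosed animals and C the same measurement in vehicle controls.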

[1] = dose: 0.5 mg/kg/injection, schedule: Q01DX009 (ip), vehicle: water

SMILES: COc1cccc2c1C(=O)c1c(O)c3c(c(O)c1C2=O)C[C@@](O)(/C(C)=N/NC(=O)c1ccc(O)cc1)C[C@@H]3OC1CC(N)C(O)C(C)O1 (stereo partly specified)
- T/C [1]: 120 % of control and 193 % of control

SMILES: COc1cccc2c1C(=O)c1c(O)c3c(c(O)c1C2=O)C[C@@](O)(C(=O)O)C[C@@H]3OC1CC(N)C(O)C(C)O1 (stereo partly specified)
- T/C (dose: 12.5 mg/kg/injection, schedule: Q01DX009 (ip), vehicle: water): 100 % of control and 151 % of control
- T/C (dose: 25.0 mg/kg/injection, schedule: Q01DX009 (ip), vehicle: water): 107 % of control and 163 % of control
- T/C (dose: 50.0 mg/kg/injection, schedule: Q01DX009 (ip), vehicle: water): 102 % of control and 151 % of control

SMILES: CCC1CC2CC(c3cc4c(cc3OC)N(C)C3C(O)(C(=O)OC)C(OC(C)=O)C5(CC)C=CCN6CCC43C65)c3[nH]c4ccccc4c3CCN(C1)C2 (stereo unspecified)
- T/C (dose: 2.0 mg/kg/injection, schedule: Q04DX003 (ip), vehicle: water): 100 % of control and 177 % of control

SMILES: CO[C@H](C(=O)[C@@H](O)[C@@H](C)O)[C@@H]1Cc2cc3cc(OC4CC(OC5CC(O)C(O)C(C)O5)C(O)C(C)O4)c(C)c(O)c3c(O)c2C(=O)[C@H]1OC1CC(OC2CC(OC3CC(C)(O)C(O)C(C)O3)C(O)C(C)O2)C(O)C(C)O1 (stereo partly specified)
- T/C (dose: 0.25 mg/kg/injection, schedule: Q01DX009 (ip), vehicle: saline): 87 % of control, 151 % of control, 160 % of control
- T/C (dose: 0.5 mg/kg/injection, schedule: Q01DX009 (ip), vehicle: saline): 95 % of control, 192 % of control, 195 % of control

SMILES: COc1ccc(C(=O)N/N=C(\C)[C@]2(O)Cc3c(O)c4c(c(O)c3[C@@H](OC3CC(N)C(O)C(C)O3)C2)C(=O)c2c(OC)cccc2C4=O)cc1 (stereo partly specified)
- T/C [1]: 104 % of control and 183 % of control

SMILES: CCCCCCCC(=O)OCC(=O)[C@]1(O)Cc2c(O)c3c(c(O)c2[C@@H](OC2CC(N)C(O)C(C)O2)C1)C(=O)c1c(OC)cccc1C3=O (stereo partly specified)
- T/C (dose: 8.0 mg/kg/injection, schedule: Q04DX003 (ip), vehicle: water): 103 % of control and 173 % of control

SMILES: C1CN(P2(N3CC3)=NP(N3CC3)(N3CC3)=NP(N3CC3)(N3CC3)=N2)CCO1 (stereo unspecified)
- T/C (dose: 50.0 mg/kg/injection, schedule: Q01DX009 (ip), vehicle: saline): 91 % of control and 156 % of control

SMILES: CC[C@H]1CN2CCc3cc(OC)c(OC)cc3[C@@H]2C[C@@H]1C[C@H]1NCCc2cc(O)c(OC)cc21
- T/C (dose: 1.0 mg/kg/injection, schedule: Q01DX010 (ip), vehicle: saline): 100 % of control and 154 % of control
